{"source": "PubChem BioAssay AID1948", "about": "(National Center for Advancing Translational Sciences (NCATS), 2009)", "note": "Hit rate of the full screen: of about 110,000 compounds, about 20 (0.02%) were called active. The shares of active, inactive and inconclusive entries below differ from those in the screen. The call rests on the fitted dose curve; in most records, active means well fitted activation curve with a large enough effect; inconclusive means small, poorly fitted or top-dose-only effect; inactive means no such curve, though single readings can be large or run the other way. Potencies of inconclusive entries are left out as doubtful fits. Potency means the concentration at half of the fitted maximal effect; tags describe the fitted curve by direction and shape.", "data": [{"test": "qHTS Assay for Compounds that Induce Erasure of Genomic Imprints;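 on activity change, positive = activation: 0% = negative control wells on the plate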", "details": "mouse ES Peg3-LacZ reporter, beta-gal luminescence, 40 h; activity change, positive = activation: at 10.9 µM (top of the series) unless noted", "in_short": "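Each well holds 300 Peg3LacZ-Neo (maternal) female ES cells incubated 40 h at 37C, 5% CO2. LacZ is measured by BetaGlo luminescence, with AC50 and maximum efficacy derived from dose-response curves.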", "values": [{"molecule": "COCc1nnc(NC(=O)c2sc3ccccc3c2Cl)s1", "Potency": "inactive"}, {"molecule": "COc1cccc(C2CC(C(F)(F)F)n3ncc(C(=O)NCC4CCCO4)c3N2)c1", "note": "(centres undefined)", "Potency": "inactive"}, {"molecule": "CC(C)CCn1c(/C=C/c2ccccc2)nc2ccccc21", "Potency": "inactive"}, {"molecule": "COC(=O)c1scc(-c2ccc(C)cc2)c1S(=O)(=O)Nc1cc(C)ccc1OC", "activity change, positive = activation": "inconclusive: 145% [activator]"}, {"molecule": "CCOC(=O)c1ccccc1NC(=O)Cn1c(=O)n(Cc2nc(C)no2)c(=O)c2ccccc21", "Potency": "inactive"}, {"molecule": "Cc1oc2c(C)c3oc(=O)c(CC(=O)N4CCCCC4)c(C)c3cc2c1C", "Potency": "inactive"}, {"molecule": "O=C1CCCC2=C1C(c1cccs1)n1nc(SCc3ccccc3F)nc1N2", "note": "(centres undefined)", "Potency": "inconclusive [activator, single point]"}, {"molecule": "CCOC(=O)c1c(NC(=O)C2c3ccccc3Oc3ccccc32)sc(C)c1CC", "Potency": "inactive"}, {"molecule": "O=C(NCc1ccc(F)cc1)C1(c2cccs2)CCOCC1", "activity change, positive = activation": "inconclusive: 33.8% [activator]"}, {"molecule": "COc1cc(OC)c2c(=O)c(O)c(-c3ccc(OC)c(OC)c3)oc2c1", "Potency": "inconclusive [activator, single point]"}, {"molecule": "CCOc1ccccc1C(=O)Nc1cc2c(cc1N1CCOCC1)n(C)c(=O)n2C", "activity change, positive = activation": "inconclusive: 219% [activator]"}, {"molecule": "O=C(Nc1nnc2n1CCS2)c1ccccc1", "Potency": "inactive"}, {"molecule": "O=C(COc1ccc(F)cc1)NC1CC(=O)N(c2ccc3c(c2)OCCO3)C1", "note": "(centres undefined)", "activity change, positive = activation": "inconclusive: 69.7% [activator]"}, {"molecule": "CCOC(=O)c1c(C)[nH]c(C)c1S(=O)(=O)N1CCN(c2ccc(Cl)cc2)CC1", "Potency": "inactive"}, {"molecule": "CC(C)c1ccc(NC(=O)C(NS(=O)(=O)c2ccc3c(c2)CCC(=O)N3)c2ccccc2)cc1", "note": "(centres undefined)", "Potency": "inactive"}, {"molecule": "FC(F)(F)c1ccccc1-c1nc(NCc2cccnc2)c2ccccc2n1", "Potency": "inconclusive [activator, single point]"}, {"molecule": "COC(=O)CCCC(=O)OC", "Potency": "inconclusive [activator, single point]"}, {"molecule": "CN(C)c1ncc2nc(-c3ccc(F)cc3)c(=O)n(C[C@H]3CCCO3)c2n1", "Potency": "inactive"}, {"molecule": "Cc1cccc(C)c1NC(=O)CN1C(=O)c2ccccc2Sc2ncccc21", "Potency": "inactive"}, {"molecule": "C=CCn1c(=O)c2c(nc3n2CCN3c2cccc(Cl)c2C)n(C)c1=O", "Potency": "inconclusive [activator, partial curve]"}, {"molecule": "O=C(NCC(c1ccc(Cl)cc1)N1CCCCC1)c1ccccc1", "note": "(centres undefined)", "Potency": "inactive"}, {"molecule": "O=C(NCCc1ccc(F)cc1)C(=O)NCC(c1ccc2c(c1)OCO2)N1CCOCC1", "note": "(centres undefined)", "activity change, positive = activation": "inconclusive: 57.1% [activator]"}, {"molecule": "COc1ccc(-n2cc(C(=O)NCc3ccc(Cl)cc3)c3ccccc3c2=O)cc1", "activity change, positive = activation": "inconclusive: 55.2% [activator]"}, {"molecule": "Cc1cccc(OCC(=O)NCc2ccc3c(c2)CCN3C(=O)c2ccccc2)c1", "activity change, positive = activation": "inconclusive: 38.8% [activator]"}, {"molecule": "COc1ccccc1Nc1nc2ccccc2n1C", "Potency": "inactive"}, {"molecule": "COc1ccc(OC)c(NC(=O)c2ccc(-c3nc(COc4ccccc4)c(C)o3)cc2)c1", "Potency": "inactive"}, {"molecule": "Cc1cc(Cl)ccc1NC(=O)C1CCN(S(=O)(=O)c2ccc3[nH]c(=O)ccc3c2)CC1", "activity change, positive = activation": "inconclusive: 39.3% [activator]"}, {"molecule": "NCCCCCCNS(=O)(=O)c1cccc2c(Cl)cccc12", "Potency": "inconclusive [activator, single point]"}, {"molecule": "Cc1ccc2c(c1)c1c(n2CC(O)Cn2nc(C)c(Br)c2C)C(=O)CCC1", "note": "(centres undefined)", "Potency": "inconclusive [activator, single point]"}, {"molecule": "COc1ccc(C(=O)Oc2c(Sc3ccc(C)cc3)c(C)nn2C(C)(C)C)cc1OC", "activity change, positive = activation": "inconclusive: 32.1% [activator]"}, {"molecule": "COc1ccc(CCNc2nc3cc(OC)c(OC)cc3c3nc(-c4ccccc4)nn23)cc1OC", "activity change, positive = activation": "inconclusive: 33.8% [activator]"}, {"molecule": "c1ccc(-c2cc3c(ccc4nonc43)nn2)cc1", "Potency": "inactive"}, {"molecule": "Cn1c(=O)c(-c2ccc(Cl)cc2)nc2cnc(OCc3ccccc3)nc21", "Potency": "inconclusive [activator, full curve, poor fit]"}, {"molecule": "Cc1ncsc1CCSc1nc2ccccc2c(=O)n1C", "Potency": "inconclusive [activator, single point]"}, {"molecule": "Cc1ccccc1-n1nc(CO)c(C(=O)NCC(c2ccccc2)c2ccccc2)n1", "Potency": "inactive"}, {"molecule": "Nc1ccc(N2C(=O)c3ccccc3C2=O)c(Cl)c1", "Potency": "inconclusive [activator, single point]"}, {"molecule": "CC1=C(C(=O)Nc2ccccc2)C(c2cccc(Cl)c2)n2nc(SCC(=O)c3ccc(C)cc3)nc2N1", "note": "(centres undefined)", "activity change, positive = activation": "inconclusive: 44.4% [activator]"}, {"molecule": "COc1ccc(-c2cc(NCCc3ccncc3)n3ncnc3n2)cc1", "Potency": "inconclusive [activator, partial curve]"}, {"molecule": "O=C(Nc1ccon1)c1cc2c(s1)CCCCCC2", "Potency": "inactive"}, {"molecule": "CN(C)c1ccc(NC(=O)CSC2=Nc3ccccc3C3=NC(CC(=O)NCc4ccccc4)C(=O)N23)cc1", "note": "(centres undefined)", "activity change, positive = activation": "inconclusive: 67.9% [activator]"}, {"molecule": "O=C(O)c1ccccc1-c1c2ccc(=O)cc-2oc2cc(O)ccc12", "Potency": "inconclusive [activator, partial curve, poor fit]"}, {"molecule": "Cc1ccc(NC(=O)Nc2nnc(SCC(=O)N3CCC(C)CC3)s2)cc1", "activity change, positive = activation": "inconclusive: 31.4% [activator]"}, {"molecule": "COc1ccc(NC(=O)c2sc3nc(-c4cc5cccc(OC)c5oc4=O)[nH]c(=O)c3c2C)cc1", "activity change, positive = activation": "inconclusive: 38.5% [activator]"}, {"molecule": "COc1ccc(-c2cn3c(n2)sc2cc(C(=O)Nc4c(C)cccc4C)ccc23)cc1", "activity change, positive = activation": "inconclusive: 36.9% [activator]"}, {"molecule": "Cc1cc(C)cc(Nc2nc3ccccc3nc2-n2nc(C)cc2C)c1", "Potency": "inactive"}, {"molecule": "CC1=C(/C=C/C(C)=C/C=C/C(C)=C/C(=O)O)C(C)(C)CCC1", "Potency": "inconclusive [activator, single point]"}, {"molecule": "COc1cc(CN(C(=O)COc2ccc(Cl)cc2)c2ccccn2)cc(OC)c1OC", "Potency": "inactive"}, {"molecule": "Cc1ccc(C)c(NC(=O)CCCn2c(C)c3cnn(-c4ccccc4)c(=O)c3c2C)c1", "activity change, positive = activation": "inconclusive: 73.4% [activator]"}, {"molecule": "CN(C)c1ncc2nc(-c3ccccc3)c(=O)n(CCc3ccccc3)c2n1", "Potency": "inconclusive [activator, single point]"}]}]}
